# Measurements: the supplement of paper PMC8728848
# Some of the results follow.
# Key:
# Assay in all cases: glycan array binding signal (z-score within array); higher = stronger binding
# Conditions in all cases: glycan notation: IUPAC condensed, linker removed
# [1] = target: GlcNAc(b1-4)GlcNAc(b1-4)GlcNAc(b1-4)GlcNAc(b1-4)GlcNAc(b1-4)GlcNAc
# Outline: (§1)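 From the Consortium for Functional Glycomics database, 3228 arrays were curated, keeping only those whose protein sequence was available. Binding is given as a within-array Z-score averaged across arrays sharing a protein sequence and across linkers. Negative Z-scores can be read as non-binding.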
# [2] = target: GlcNAc(b1-4)[GlcNAc(b1-6)]GalNAc
# Outline: as §1
# [3] = target: GlcNAc(b1-6)Gal(b1-4)GlcNAc
# Outline: as §1
# GlcNAc(b1-6)GalNAc = target: GlcNAc(b1-6)GalNAc
# Outline: as §1
# [4] = target: GlcNAc6S(b1-3)Gal(b1-4)GlcNAc
# Outline: as §1
# Kdn(a2-3)Gal(b1-3)GalNAc = target: Kdn(a2-3)Gal(b1-3)GalNAc
# Outline: as §1
# Kdn(a2-3)Gal(b1-3)GlcNAc = target: Kdn(a2-3)Gal(b1-3)GlcNAc
# Outline: as §1
# Kdn(a2-3)Gal(b1-4)Glc = target: Kdn(a2-3)Gal(b1-4)Glc
# Outline: as §1
# Kdn(a2-3)Gal(b1-4)GlcNAc = target: Kdn(a2-3)Gal(b1-4)GlcNAc
# Outline: as §1
# [5] = target: Kdn(a2-3)Gal(b1-4)[Fuc(a1-3)]GlcNAc
# Outline: as §1
# Kdn(a2-6)Gal(b1-4)GlcNAc = target: Kdn(a2-6)Gal(b1-4)GlcNAc
# Outline: as §1
# [6] = target: Man(a1-2)Man(a1-2)Man(a1-3)Man
# Outline: as §1
# [7] = target: Man(a1-2)Man(a1-2)Man(a1-6)[Man(a1-3)]Man
# Outline: as §1
# Man(a1-2)Man(a1-3)Man = target: Man(a1-2)Man(a1-3)Man
# Outline: as §1
# [8] = target: Man(a1-2)Man(a1-3)[Man(a1-2)Man(a1-6)]Man
# Outline: as §1
# [9] = target: Man(a1-2)Man(a1-3)[Man(a1-2)Man(a1-6)]Man(a1-6)[Man(a1-2)Man(a1-2)Man(a1-3)]Man
# Outline: as §1
# [10] = target: Man(a1-2)Man(a1-3)[Man(a1-2)Man(a1-6)]Man(a1-6)[Man(a1-2)Man(a1-2)Man(a1-3)]Man(b1-4)GlcNAc(b1-4)GlcNAc
# Outline: as §1
# [11] = target: Man(a1-2)Man(a1-3)[Man(a1-6)]Man(a1-6)[Man(a1-2)Man(a1-3)]Man(b1-4)GlcNAc(b1-4)GlcNAc
# Outline: as §1
# [12] = target: Man(a1-2)Man(a1-6)[Man(a1-3)]Man(a1-6)[Man(a1-2)Man(a1-2)Man(a1-3)]Man
# Outline: as §1
# [13] = target: Man(a1-2)Man(a1-6)[Man(a1-3)]Man(a1-6)[Man(a1-2)Man(a1-2)Man(a1-3)]Man(b1-4)GlcNAc(b1-4)GlcNAc
# Outline: as §1
# Man(a1-3)[Man(a1-6)]Man = target: Man(a1-3)[Man(a1-6)]Man
# Outline: as §1
# [14] = target: Man(a1-3)[Man(a1-6)]Man(a1-6)[Man(a1-2)Man(a1-3)]Man(b1-4)GlcNAc(b1-4)GlcNAc
# Outline: as §1
# [15] = target: Man(a1-3)[Man(a1-6)]Man(a1-6)[Man(a1-3)]Man
# Outline: as §1
# [16] = target: Man(a1-3)[Man(a1-6)]Man(a1-6)[Man(a1-3)]Man(b1-4)GlcNAc(b1-4)GlcNAc
# Outline: as §1
# [17] = target: Man(a1-3)[Man(a1-6)]Man(b1-4)GlcNAc(b1-4)GlcNAc
# Outline: as §1
# [18] = target: Man(a1-3)[Man(a1-6)]Man(b1-4)GlcNAc(b1-4)[Fuc(a1-6)]GlcNAc
# Outline: as §1
# Man(a1-6)Man = target: Man(a1-6)Man
# Outline: as §1
# Man(b1-4)GlcNAc = target: Man(b1-4)GlcNAc
# Outline: as §1
# MurNAc(b1-4)GlcNAc = target: MurNAc(b1-4)GlcNAc
# Outline: as §1
# Neu5Ac(a2-3)Gal = target: Neu5Ac(a2-3)Gal
# Outline: as §1
# [19] = target: Neu5Ac(a2-3)Gal(b1-3)GalNAc
# Outline: as §1
# [20] = target: Neu5Ac(a2-3)Gal(b1-3)GalNAc(b1-3)Gal(a1-4)Gal(b1-4)Glc
# Outline: as §1
# [21] = target: Neu5Ac(a2-3)Gal(b1-3)GalNAc(b1-4)[Neu5Ac(a2-3)]Gal(b1-4)Glc
# Outline: as §1
# [22] = target: Neu5Ac(a2-3)Gal(b1-3)GalNAc(b1-4)[Neu5Ac(a2-8)Neu5Ac(a2-3)]Gal(b1-4)Glc
# Outline: as §1
# [23] = target: Neu5Ac(a2-3)Gal(b1-3)GalNAc6S
# Outline: as §1
# [24] = target: Neu5Ac(a2-3)Gal(b1-3)GlcNAc
# Outline: as §1
# [25] = target: Neu5Ac(a2-3)Gal(b1-3)GlcNAc(b1-2)Man
# Outline: as §1
# [26] = target: Neu5Ac(a2-3)Gal(b1-3)GlcNAc(b1-2)Man(a1-3)[GlcNAc(b1-4)][Neu5Ac(a2-3)Gal(b1-3)GlcNAc(b1-2)Man(a1-6)]Man(b1-4)GlcNAc(b1-4)GlcNAc
# Outline: as §1
# [27] = target: Neu5Ac(a2-3)Gal(b1-3)GlcNAc(b1-2)Man(a1-3)[Neu5Ac(a2-3)Gal(b1-3)GlcNAc(b1-2)Man(a1-6)]Man(b1-4)GlcNAc(b1-4)GlcNAc
# Outline: as §1
# [28] = target: Neu5Ac(a2-3)Gal(b1-3)GlcNAc(b1-2)[Neu5Ac(a2-3)Gal(b1-3)GlcNAc(b1-4)]Man(a1-6)[Neu5Ac(a2-3)Gal(b1-3)GlcNAc(b1-2)Man(a1-3)]Man(b1-4)GlcNAc(b1-4)GlcNAc
# Outline: as §1
# [29] = target: Neu5Ac(a2-3)Gal(b1-3)GlcNAc(b1-3)Gal(b1-3)GlcNAc
# Outline: as §1
# [30] = target: Neu5Ac(a2-3)Gal(b1-3)GlcNAc(b1-3)Gal(b1-4)GlcNAc
# Outline: as §1
# [31] = target: Neu5Ac(a2-3)Gal(b1-3)GlcNAc(b1-3)GalNAc
# Outline: as §1
# [32] = target: Neu5Ac(a2-3)Gal(b1-3)GlcNAc(b1-4)Gal(b1-4)Glc
# Outline: as §1
# [33] = target: Neu5Ac(a2-3)Gal(b1-3)GlcNAc(b1-6)GalNAc
# Outline: as §1
binder,measurement,setting,value
rCnSL-A (Clitocybe nebularis) (protein) VNPNLPGPNDVFVGFRGTNNIVGAIYEKDGIKDTPLNNGADAEMGPGSYITDGLFTARIFASGSAGNNPGTTATVCKIYASGVQWRGAPKGYIPVAYFGNGPTAEQRRQTYLRTLGLPGTAIRFGNLNTNPGQGPTAPRQMVVPPGPLRSLLKASCFPAADTRLPQTLHYFEKRVDWNIITAADSQTWGH,glycan array binding signal (z-score),[1],-0.232
same,glycan array binding signal (z-score),[2],-0.237
same,glycan array binding signal (z-score),[3],-0.21
same,glycan array binding signal (z-score),GlcNAc(b1-6)GalNAc,-0.235
same,glycan array binding signal (z-score),[4],-0.018
same,glycan array binding signal (z-score),Kdn(a2-3)Gal(b1-3)GalNAc,-0.16
same,glycan array binding signal (z-score),Kdn(a2-3)Gal(b1-3)GlcNAc,-0.287
same,glycan array binding signal (z-score),Kdn(a2-3)Gal(b1-4)Glc,-0.222
same,glycan array binding signal (z-score),Kdn(a2-3)Gal(b1-4)GlcNAc,-0.225
same,glycan array binding signal (z-score),[5],-0.25
same,glycan array binding signal (z-score),Kdn(a2-6)Gal(b1-4)GlcNAc,-0.218
same,glycan array binding signal (z-score),[6],-0.24
same,glycan array binding signal (z-score),[7],-0.17
same,glycan array binding signal (z-score),Man(a1-2)Man(a1-3)Man,-0.212
same,glycan array binding signal (z-score),[8],-0.269
same,glycan array binding signal (z-score),[9],-0.064
same,glycan array binding signal (z-score),[10],0.008
same,glycan array binding signal (z-score),[11],-0.116
same,glycan array binding signal (z-score),[12],-0.251
same,glycan array binding signal (z-score),[13],-0.138
same,glycan array binding signal (z-score),Man(a1-3)[Man(a1-6)]Man,-0.228
same,glycan array binding signal (z-score),[14],0.44
same,glycan array binding signal (z-score),[15],-0.221
same,glycan array binding signal (z-score),[16],-0.237
same,glycan array binding signal (z-score),[17],-0.208
same,glycan array binding signal (z-score),[18],-0.101
same,glycan array binding signal (z-score),Man(a1-6)Man,-0.289
same,glycan array binding signal (z-score),Man(b1-4)GlcNAc,-0.086
same,glycan array binding signal (z-score),MurNAc(b1-4)GlcNAc,-0.236
same,glycan array binding signal (z-score),Neu5Ac(a2-3)Gal,-0.301
same,glycan array binding signal (z-score),[19],-0.221
same,glycan array binding signal (z-score),[20],-0.183
same,glycan array binding signal (z-score),[21],-0.217
same,glycan array binding signal (z-score),[22],-0.112
same,glycan array binding signal (z-score),[23],-0.234
same,glycan array binding signal (z-score),[24],-0.217
same,glycan array binding signal (z-score),[25],-0.19
same,glycan array binding signal (z-score),[26],-0.16
same,glycan array binding signal (z-score),[27],0.866
same,glycan array binding signal (z-score),[28],-0.136
same,glycan array binding signal (z-score),[29],-0.25
same,glycan array binding signal (z-score),[30],-0.231
same,glycan array binding signal (z-score),[31],-0.161
same,glycan array binding signal (z-score),[32],-0.2
same,glycan array binding signal (z-score),[33],-0.235
